# Data: the supplement of paper PMC8728848
# This is one part of the list.
# Assays:
# Experiment in all cases: glycan array binding signal (z-score within array); higher = stronger binding
# Settings in all cases: glycan notation: IUPAC condensed, linker removed
# Gal(b1-4)Glc = target: Gal(b1-4)Glc
# Method in brief: (§1)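 Arrays were curated from the Consortium for Functional Glycomics database, 3228 in total, and kept only where the protein sequence was available. Binding is expressed as a within-array Z-score. This score was averaged across arrays of the same protein sequence at different concentrations or buffers and across linkers, and negative values can be read as non-binding.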
# Gal(b1-4)Glc6S = target: Gal(b1-4)Glc6S
# Method in brief: as §1
# Gal(b1-4)GlcNAc = target: Gal(b1-4)GlcNAc
# Method in brief: as §1
# [1] = target: Gal(b1-4)GlcNAc(a1-6)Gal(b1-4)GlcNAc
# Method in brief: as §1
# Gal(b1-4)GlcNAc(b1-2)Man = target: Gal(b1-4)GlcNAc(b1-2)Man
# Method in brief: as §1
# [2] = target: Gal(b1-4)GlcNAc(b1-2)Man(a1-3)Man(b1-4)GlcNAc(b1-4)GlcNAc
# Method in brief: as §1
# [3] = target: Gal(b1-4)GlcNAc(b1-2)Man(a1-3)[Gal(b1-4)GlcNAc(b1-2)Man(a1-6)]Man(b1-4)GlcNAc(b1-4)GlcNAc
# Method in brief: as §1
# [4] = target: Gal(b1-4)GlcNAc(b1-2)Man(a1-3)[Gal(b1-4)GlcNAc(b1-2)Man(a1-6)]Man(b1-4)GlcNAc(b1-4)[Fuc(a1-6)]GlcNAc
# Method in brief: as §1
# [5] = target: Gal(b1-4)GlcNAc(b1-2)Man(a1-3)[Gal(b1-4)GlcNAc(b1-2)Man(a1-6)][Gal(b1-4)GlcNAc(b1-4)]Man(b1-4)GlcNAc(b1-4)[Fuc(a1-6)]GlcNAc
# Method in brief: as §1
# [6] = target: Gal(b1-4)GlcNAc(b1-2)Man(a1-3)[Gal(b1-4)GlcNAc(b1-2)Man(a1-6)][GlcNAc(b1-4)]Man(b1-4)GlcNAc(b1-4)[Fuc(a1-6)]GlcNAc
# Method in brief: as §1
# [7] = target: Gal(b1-4)GlcNAc(b1-2)Man(a1-3)[GlcNAc(b1-2)Man(a1-6)]Man(b1-4)GlcNAc(b1-4)GlcNAc
# Method in brief: as §1
# [8] = target: Gal(b1-4)GlcNAc(b1-2)Man(a1-3)[GlcNAc(b1-4)][Gal(b1-4)GlcNAc(b1-2)Man(a1-6)]Man(b1-4)GlcNAc(b1-4)GlcNAc
# Method in brief: as §1
# [9] = target: Gal(b1-4)GlcNAc(b1-2)Man(a1-3)[Man(a1-6)]Man(b1-4)GlcNAc(b1-4)GlcNAc
# Method in brief: as §1
# [10] = target: Gal(b1-4)GlcNAc(b1-2)Man(a1-6)Man(b1-4)GlcNAc(b1-4)GlcNAc
# Method in brief: as §1
# [11] = target: Gal(b1-4)GlcNAc(b1-2)Man(a1-6)[GlcNAc(b1-2)Man(a1-3)]Man(b1-4)GlcNAc(b1-4)GlcNAc
# Method in brief: as §1
# [12] = target: Gal(b1-4)GlcNAc(b1-2)Man(a1-6)[Man(a1-3)]Man(b1-4)GlcNAc(b1-4)GlcNAc
# Method in brief: as §1
# [13] = target: Gal(b1-4)GlcNAc(b1-2)[Gal(b1-4)GlcNAc(b1-4)]Man(a1-3)[Gal(b1-4)GlcNAc(b1-2)Man(a1-6)]Man(b1-4)GlcNAc(b1-4)GlcNAc
# Method in brief: as §1
# [14] = target: Gal(b1-4)GlcNAc(b1-2)[Gal(b1-4)GlcNAc(b1-4)]Man(a1-3)[Gal(b1-4)GlcNAc(b1-2)[Gal(b1-4)GlcNAc(b1-6)]Man(a1-6)]Man(b1-4)GlcNAc(b1-4)GlcNAc
# Method in brief: as §1
# [15] = target: Gal(b1-4)GlcNAc(b1-2)[Gal(b1-4)GlcNAc(b1-4)]Man(a1-3)[GlcNAc(b1-4)][Gal(b1-4)GlcNAc(b1-2)Man(a1-6)]Man(b1-4)GlcNAc(b1-4)GlcNAc
# Method in brief: as §1
# [16] = target: Gal(b1-4)GlcNAc(b1-2)[Gal(b1-4)GlcNAc(b1-4)]Man(a1-3)[GlcNAc(b1-4)][Gal(b1-4)GlcNAc(b1-2)[Gal(b1-4)GlcNAc(b1-6)]Man(a1-6)]Man(b1-4)GlcNAc(b1-4)GlcNAc
# Method in brief: as §1
# [17] = target: Gal(b1-4)GlcNAc(b1-2)[Gal(b1-4)GlcNAc(b1-6)]Man(a1-6)[Gal(b1-4)GlcNAc(b1-2)Man(a1-3)]Man(b1-4)GlcNAc(b1-4)GlcNAc
# Method in brief: as §1
# [18] = target: Gal(b1-4)GlcNAc(b1-2)[Gal(b1-4)GlcNAc(b1-6)]Man(a1-6)[Gal(b1-4)GlcNAc(b1-2)Man(a1-3)]Man(b1-4)GlcNAc(b1-4)[Fuc(a1-6)]GlcNAc
# Method in brief: as §1
binder,measurement,setting,value
SP15308A-bot-339-19-339 (Bacteroides ovatus) (protein) ACNNEWEDEQYEQYISFKSPIPAGGEGVTDIYVRYKEDGKVTYRLPIVVSGSTTNTLDREVHIAVDKDTLETLNIERFSIHRPGLWYTALEEDKYDFPKTVHISAGSSVEQLNIDFNLQGIDMLEKWVLPLTIVDDPSYNYKSHPRKNYAKALLRVIPFNNYSGSYTSSAMKVYTYINGKPDTNARTANKRTGYVINDNTVFFYAGLISEDLDKEVREKYKINVHFNEDGTLHMEQGDPTNKMKFELIGTPTYSKTSVMDATRPYLERRYVQIMFEYDFEDFSYGGNGVDVIPIKYKVEGSMTLQRNINTQIPDEDQQIEW,glycan array binding signal (z-score),Gal(b1-4)Glc,-0.451
same,glycan array binding signal (z-score),Gal(b1-4)Glc6S,0.631
same,glycan array binding signal (z-score),Gal(b1-4)GlcNAc,-0.185
same,glycan array binding signal (z-score),[1],-0.497
same,glycan array binding signal (z-score),Gal(b1-4)GlcNAc(b1-2)Man,1.02
same,glycan array binding signal (z-score),[2],-0.191
same,glycan array binding signal (z-score),[3],-0.394
same,glycan array binding signal (z-score),[4],-0.014
same,glycan array binding signal (z-score),[5],-0.393
same,glycan array binding signal (z-score),[6],-0.323
same,glycan array binding signal (z-score),[7],-0.46
same,glycan array binding signal (z-score),[8],-0.183
same,glycan array binding signal (z-score),[9],-0.153
same,glycan array binding signal (z-score),[10],-0.545
same,glycan array binding signal (z-score),[11],-0.093
same,glycan array binding signal (z-score),[12],0.225
same,glycan array binding signal (z-score),[13],-0.051
same,glycan array binding signal (z-score),[14],-0.036
same,glycan array binding signal (z-score),[15],-0.429
same,glycan array binding signal (z-score),[16],-0.651
same,glycan array binding signal (z-score),[17],0.11
same,glycan array binding signal (z-score),[18],-0.254
